# Source: the supplement of paper PMC8728848
# The list shows a part of the results.
# B1: Gal 3 (Homo sapiens), P17931 (protein)
# chain: MADNFSLHDALSGSGNPNPQGWPGAWGNQPAGAGGYPGASYPGAYPGQAPPGAYPGQAPPGAYHGAPGAYPGAPAPGVYPGPPSGPGAYPSSGQPSAPGAYPATGPYGAPAGPLIVPYNLPLPGGVVPRMLITILGTVKPNANILDFQRGNDVAFHFNPRFNENNRRVIVCNTKLDNNWAREERQSVFPFESGKPFKIQVLVEPDHFKVAVNDAHLLQYNHRVKKLNEISKLGISGDIDLTSASYTMI
# Experiments:
# Experiment in all cases: glycan array binding signal (z-score within array); higher = stronger binding
# Details in all cases: glycan notation: IUPAC condensed, linker removed; mutation: G182A
# [1] = biological target: Neu5Ac(a2-3)Gal6S(b1-4)[Fuc(a1-3)]GlcNAc
# Summary of the method: (§1)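 From the Consortium for Functional Glycomics database, 3228 arrays were curated, keeping only those whose protein sequence was available. Binding is given as a within-array Z-score averaged across arrays sharing a protein sequence and across linkers. Negative Z-scores can be read as non-binding.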
# Neu5Ac(a2-3)GalNAc = biological target: Neu5Ac(a2-3)GalNAc
# Summary of the method: as §1
# [2] = biological target: Neu5Ac(a2-3)GalNAc(b1-4)GlcNAc
# Summary of the method: as §1
# [3] = biological target: Neu5Ac(a2-3)[GalNAc(b1-4)]Gal(b1-4)Glc
# Summary of the method: as §1
# [4] = biological target: Neu5Ac(a2-3)[GalNAc(b1-4)]Gal(b1-4)GlcNAc
# Summary of the method: as §1
# [5] = biological target: Neu5Ac(a2-3)[GalNAc(b1-4)]Gal(b1-4)GlcNAc(b1-3)GalNAc
# Summary of the method: as §1
# [6] = biological target: Neu5Ac(a2-3)[Neu5Ac(a2-6)]GalNAc
# Summary of the method: as §1
# Neu5Ac(a2-6)Gal = biological target: Neu5Ac(a2-6)Gal
# Summary of the method: as §1
# Neu5Ac(a2-6)Gal(b1-4)Glc = biological target: Neu5Ac(a2-6)Gal(b1-4)Glc
# Summary of the method: as §1
# [7] = biological target: Neu5Ac(a2-6)Gal(b1-4)GlcNAc
# Summary of the method: as §1
# [8] = biological target: Neu5Ac(a2-6)Gal(b1-4)GlcNAc(b1-2)Man(a1-3)Man(b1-4)GlcNAc(b1-4)GlcNAc
# Summary of the method: as §1
# [9] = biological target: Neu5Ac(a2-6)Gal(b1-4)GlcNAc(b1-2)Man(a1-3)[Gal(b1-4)GlcNAc(b1-2)Man(a1-6)]Man(b1-4)GlcNAc(b1-4)GlcNAc
# Summary of the method: as §1
# [10] = biological target: Neu5Ac(a2-6)Gal(b1-4)GlcNAc(b1-2)Man(a1-3)[GlcNAc(b1-2)Man(a1-6)]Man(b1-4)GlcNAc(b1-4)GlcNAc
# Summary of the method: as §1
# [11] = biological target: Neu5Ac(a2-6)Gal(b1-4)GlcNAc(b1-2)Man(a1-3)[GlcNAc(b1-2)Man(b1-4)GlcNAc(b1-2)Man(a1-6)]Man(b1-4)GlcNAc(b1-4)GlcNAc
# Summary of the method: as §1
# [12] = biological target: Neu5Ac(a2-6)Gal(b1-4)GlcNAc(b1-2)Man(a1-3)[Man(a1-6)]Man(b1-4)GlcNAc(b1-4)GlcNAc
# Summary of the method: as §1
# [13] = biological target: Neu5Ac(a2-6)Gal(b1-4)GlcNAc(b1-2)Man(a1-3)[Neu5Ac(a2-6)Gal(b1-4)GlcNAc(b1-2)Man(a1-6)]Man(b1-4)GlcNAc(b1-4)GlcNAc
# Summary of the method: as §1
# [14] = biological target: Neu5Ac(a2-6)Gal(b1-4)GlcNAc(b1-2)Man(a1-6)Man(b1-4)GlcNAc(b1-4)GlcNAc
# Summary of the method: as §1
# [15] = biological target: Neu5Ac(a2-6)Gal(b1-4)GlcNAc(b1-2)Man(a1-6)[Gal(b1-4)GlcNAc(b1-2)Man(a1-3)]Man(b1-4)GlcNAc(b1-4)GlcNAc
# Summary of the method: as §1
# [16] = biological target: Neu5Ac(a2-6)Gal(b1-4)GlcNAc(b1-2)Man(a1-6)[GlcNAc(b1-2)Man(a1-3)]Man(b1-4)GlcNAc(b1-4)GlcNAc
# Summary of the method: as §1
# [17] = biological target: Neu5Ac(a2-6)Gal(b1-4)GlcNAc(b1-2)Man(a1-6)[Man(a1-3)]Man(b1-4)GlcNAc(b1-4)GlcNAc
# Summary of the method: as §1
# [18] = biological target: Neu5Ac(a2-6)Gal(b1-4)GlcNAc(b1-3)Gal(b1-3)GlcNAc
# Summary of the method: as §1
# [19] = biological target: Neu5Ac(a2-6)Gal(b1-4)GlcNAc(b1-3)Gal(b1-4)GlcNAc
# Summary of the method: as §1
# [20] = biological target: Neu5Ac(a2-6)Gal(b1-4)GlcNAc(b1-3)Gal(b1-4)GlcNAc(b1-3)Gal(b1-4)GlcNAc
# Summary of the method: as §1
# [21] = biological target: Neu5Ac(a2-6)Gal(b1-4)GlcNAc(b1-3)Gal(b1-4)[Fuc(a1-3)]GlcNAc(b1-3)Gal(b1-4)[Fuc(a1-3)]GlcNAc
# Summary of the method: as §1
# [22] = biological target: Neu5Ac(a2-6)Gal(b1-4)GlcNAc(b1-3)GalNAc
# Summary of the method: as §1
# [23] = biological target: Neu5Ac(a2-6)Gal(b1-4)GlcNAc6S
# Summary of the method: as §1
# Neu5Ac(a2-6)GalNAc = biological target: Neu5Ac(a2-6)GalNAc
# Summary of the method: as §1
# [24] = biological target: Neu5Ac(a2-6)GalNAc(b1-4)GlcNAc
# Summary of the method: as §1
# [25] = biological target: Neu5Ac(a2-6)GlcNAc(b1-4)GlcNAc
# Summary of the method: as §1
# [26] = biological target: Neu5Ac(a2-6)GlcNAc(b1-4)GlcNAc(b1-4)GlcNAc
# Summary of the method: as §1
# Neu5Ac(a2-8)Neu5Ac = biological target: Neu5Ac(a2-8)Neu5Ac
# Summary of the method: as §1
# [27] = biological target: Neu5Ac(a2-8)Neu5Ac(a2-3)Gal(b1-4)Glc
# Summary of the method: as §1
# [28] = biological target: Neu5Ac(a2-8)Neu5Ac(a2-3)[GalNAc(b1-4)]Gal(b1-4)Glc
# Summary of the method: as §1
# [29] = biological target: Neu5Ac(a2-8)Neu5Ac(a2-8)Neu5Ac
# Summary of the method: as §1
# [30] = biological target: Neu5Ac(a2-8)Neu5Ac(a2-8)Neu5Ac(a2-3)Gal(b1-4)Glc
# Summary of the method: as §1
# [31] = biological target: Neu5Ac(a2-8)Neu5Ac(a2-8)Neu5Ac(a2-3)[GalNAc(b1-4)]Gal(b1-4)Glc
# Summary of the method: as §1
# [32] = biological target: Neu5Ac(a2-8)Neu5Ac(a2-8)Neu5Ac(a2-8)Neu5Ac(a2-3)[GalNAc(b1-4)]Gal(b1-4)Glc
# Summary of the method: as §1
# [33] = biological target: Neu5Ac(b2-6)Gal(b1-4)GlcNAc
# Summary of the method: as §1
# Neu5Ac(b2-6)GalNAc = biological target: Neu5Ac(b2-6)GalNAc
# Summary of the method: as §1
# [34] = biological target: Neu5Ac9Ac(a2-3)Gal(b1-3)GlcNAc
# Summary of the method: as §1
# [35] = biological target: Neu5Ac9Ac(a2-3)Gal(b1-4)GlcNAc
# Summary of the method: as §1
# [36] = biological target: Neu5Ac9Ac(a2-6)Gal(b1-4)GlcNAc
# Summary of the method: as §1
# [37] = biological target: Neu5Gc(a2-3)Gal(b1-3)GlcNAc
# Summary of the method: as §1
# [38] = biological target: Neu5Gc(a2-3)Gal(b1-3)[Fuc(a1-4)]GlcNAc
# Summary of the method: as §1
# Neu5Gc(a2-3)Gal(b1-4)Glc = biological target: Neu5Gc(a2-3)Gal(b1-4)Glc
# Summary of the method: as §1
# [39] = biological target: Neu5Gc(a2-3)Gal(b1-4)GlcNAc
# Summary of the method: as §1
# [40] = biological target: Neu5Gc(a2-3)Gal(b1-4)[Fuc(a1-3)]GlcNAc
# Summary of the method: as §1
# [41] = biological target: Neu5Gc(a2-6)Gal(b1-4)GlcNAc
# Summary of the method: as §1
# Neu5Gc(a2-6)GalNAc = biological target: Neu5Gc(a2-6)GalNAc
# Summary of the method: as §1
# [42] = biological target: Neu5Gc(b2-6)Gal(b1-4)GlcNAc
# Summary of the method: as §1
binder,measurement,setting,value
B1,glycan array binding signal (z-score),[1],-0.194
same,glycan array binding signal (z-score),Neu5Ac(a2-3)GalNAc,-0.192
same,glycan array binding signal (z-score),[2],-0.147
same,glycan array binding signal (z-score),[3],-0.189
same,glycan array binding signal (z-score),[4],-0.191
same,glycan array binding signal (z-score),[5],-0.195
same,glycan array binding signal (z-score),[6],-0.189
same,glycan array binding signal (z-score),Neu5Ac(a2-6)Gal,-0.176
same,glycan array binding signal (z-score),Neu5Ac(a2-6)Gal(b1-4)Glc,-0.183
same,glycan array binding signal (z-score),[7],-0.177
same,glycan array binding signal (z-score),[8],-0.19
same,glycan array binding signal (z-score),[9],-0.164
same,glycan array binding signal (z-score),[10],-0.196
same,glycan array binding signal (z-score),[11],-0.136
same,glycan array binding signal (z-score),[12],-0.191
same,glycan array binding signal (z-score),[13],-0.156
same,glycan array binding signal (z-score),[14],-0.176
same,glycan array binding signal (z-score),[15],-0.194
same,glycan array binding signal (z-score),[16],-0.123
same,glycan array binding signal (z-score),[17],-0.17
same,glycan array binding signal (z-score),[18],0.189
same,glycan array binding signal (z-score),[19],0.013
same,glycan array binding signal (z-score),[20],3.27
same,glycan array binding signal (z-score),[21],-0.188
same,glycan array binding signal (z-score),[22],-0.143
same,glycan array binding signal (z-score),[23],-0.184
same,glycan array binding signal (z-score),Neu5Ac(a2-6)GalNAc,-0.161
same,glycan array binding signal (z-score),[24],-0.191
same,glycan array binding signal (z-score),[25],-0.189
same,glycan array binding signal (z-score),[26],-0.191
same,glycan array binding signal (z-score),Neu5Ac(a2-8)Neu5Ac,-0.188
same,glycan array binding signal (z-score),[27],-0.185
same,glycan array binding signal (z-score),[28],-0.138
same,glycan array binding signal (z-score),[29],-0.183
same,glycan array binding signal (z-score),[30],-0.191
same,glycan array binding signal (z-score),[31],-0.167
same,glycan array binding signal (z-score),[32],-0.192
same,glycan array binding signal (z-score),[33],-0.159
same,glycan array binding signal (z-score),Neu5Ac(b2-6)GalNAc,-0.191
same,glycan array binding signal (z-score),[34],-0.197
same,glycan array binding signal (z-score),[35],-0.185
same,glycan array binding signal (z-score),[36],-0.189
same,glycan array binding signal (z-score),[37],-0.173
same,glycan array binding signal (z-score),[38],-0.192
same,glycan array binding signal (z-score),Neu5Gc(a2-3)Gal(b1-4)Glc,-0.195
same,glycan array binding signal (z-score),[39],-0.181
same,glycan array binding signal (z-score),[40],-0.193
same,glycan array binding signal (z-score),[41],-0.189
same,glycan array binding signal (z-score),Neu5Gc(a2-6)GalNAc,-0.182
same,glycan array binding signal (z-score),[42],-0.19
